Consider 21 variants from the supplement of paper PMC7125110.

± gives the standard error. This sample is rich in variants without activity. Some results are limits rather than exact numbers.

The labels stand for the following.
B1: glmS ribozyme (parent)
chain: AUAAAAGCGCCAGAACUACAGAAAUGUAGUUGACGAGGAGGAGGUUUAUCGAAUUUUCGGCGGAUGCCUCCAAA

Common to all, as to conditions: with glucosamine-6-phosphate
Series [1] covers variants of B1. Put plainly: self-cleavage kobs at 640 uM GlcN6P; higher = faster cleavage; RNA array. The method, boiled down: (§1)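 kobs was derived by fitting per-tile medians to one- or two-exponential decays after normalising signals to baseline and to non-cleaving reference variants. Those signals came from barcoded ribozyme variants transcribed in situ by E. coli RNA polymerase on sequenced MiSeq chips, followed through a hybridised Cy3 probe at 37 °C and imaged over ~14 h. Glucosamine-6-phosphate (40 μM to 10 mM) in HEPES/KCl/Mg(OAc)2 buffer was flowed in. Weighted Michaelis–Menten fits across concentrations then gave kcat and KM.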

In series [2] the parent is B1. Put plainly: self-cleavage kobs at 160 uM GlcN6P; higher = faster cleavage; RNA array. The essentials:
as §1

The variants in series [3] derive from B1. Put plainly: self-cleavage kobs at 2500 uM GlcN6P; higher = faster cleavage; RNA array. The method, boiled down: as §1
Series [4] covers variants of B1. Put plainly: self-cleavage kobs at 10000 uM GlcN6P; higher = faster cleavage; RNA array. The method, boiled down:
as §1

On to AUAAAAGCGCCGGAACUACAGAAAUGUAGUUGAAGAGGAGGAGGUUUAUCGAAUUUUCGGCGGAUGCCUCCAAA [A12G C34A], for which the “self-cleavage kobs at 640 uM GlcN6P” value with glucosamine-6-phosphate [1] was less than 1e-05 s⁻¹. The “self-cleavage kobs at 160 uM GlcN6P” value with glucosamine-6-phosphate [2] is less than 1e-05 s⁻¹. In addition, the “self-cleavage kobs at 2500 uM GlcN6P” value with glucosamine-6-phosphate [3] is less than 1e-05 s⁻¹. Besides, the “self-cleavage kobs at 10000 uM GlcN6P” value with glucosamine-6-phosphate [4] is less than 1e-05 s⁻¹.

Turning to AUAAAAGCGCGAGAACUACAGAAAUGUAGUUGACGAGGAGGAGGAUUAUCGAAUUUUCGGCGGAUGCGUCCAAA [C11G U45A C68G], in the series with glucosamine-6-phosphate [1], the “self-cleavage kobs at 640 uM GlcN6P” value was less than 1e-05 s⁻¹. For the same variant, the “self-cleavage kobs at 2500 uM GlcN6P” value in the series with glucosamine-6-phosphate [3] was less than 1e-05 s⁻¹.

For the variant AUAAAAGCGCCGGAACUACAGAAAUGUAGUUAAGGAGGAGGAGGUUUAUCGAAUUUUCGGCGGAUGCCUCAAAA [A12G G32A C34G C71A], the “self-cleavage kobs at 640 uM GlcN6P” value with glucosamine-6-phosphate [1] is less than 1e-05 s⁻¹.

AUAAAAGCGCGAGAACUACAGAAAUGUAGUUGACGAGGAAGAGGUUUAUCGAAUUUUCGGCGGAUACCGCCAAA [C11G G40A G66A U69G]: in the series with glucosamine-6-phosphate [1], the “self-cleavage kobs at 640 uM GlcN6P” value was less than 1e-05 s⁻¹. Moreover, the “self-cleavage kobs at 2500 uM GlcN6P” value with glucosamine-6-phosphate [3] was less than 1e-05 s⁻¹.

With AUAAAAGCGCGAGAACUACAGAAAUGUAGUUGUAGAGGAGAAGGUUUAUCGAAAUUUCGGCGGAUGCCUCCAAA [C11G A33U C34A G41A U54A], in the series with glucosamine-6-phosphate [1], the “self-cleavage kobs at 640 uM GlcN6P” value was less than 1e-05 s⁻¹. In addition, in the series with glucosamine-6-phosphate [2], the “self-cleavage kobs at 160 uM GlcN6P” value is less than 1e-05 s⁻¹. Also, in the series with glucosamine-6-phosphate [3], the “self-cleavage kobs at 2500 uM GlcN6P” value was less than 1e-05 s⁻¹.

Turning to AUAAAAGCGCCGGAACUACAGAAAUGUAGGUGACGAGGAGGAGGUUUAUCGAAUUUUCUGCGGAUGCCUCCAAA [A12G U30G G59U], the “self-cleavage kobs at 640 uM GlcN6P” value in the series with glucosamine-6-phosphate [1] was less than 1e-05 s⁻¹.

For AUAAAAGCGCGAGAACUACAGAAAUGUAGUUGACGAGGAGGAGGUUUAUUGAAUUUUCGGCGGAUUCCUCCAAA [C11G C50U G66U], in the series with glucosamine-6-phosphate [1], the “self-cleavage kobs at 640 uM GlcN6P” value is less than 1e-05 s⁻¹.

Consider AUAAAAGCGCUAGAACUACAGAAAUGUAGUCGACGAGGAGGAGGUUUAUCGAAUUUUCGGCGAAUGCCUCCAAA [C11U U31C G63A], for which the “self-cleavage kobs at 640 uM GlcN6P” value with glucosamine-6-phosphate [1] was less than 1e-05 s⁻¹. Besides, in the series with glucosamine-6-phosphate [3], the “self-cleavage kobs at 2500 uM GlcN6P” value is less than 1e-05 s⁻¹.

Regarding AUAAAAGCGCCUGAACUACAGAAAUGUAGUUGACAAGGAUGAGGUUUAUCGAAUUUUCGGCGGAUGCCUCCAAA [A12U G35A G40U], in the series with glucosamine-6-phosphate [1], the “self-cleavage kobs at 640 uM GlcN6P” value was less than 1e-05 s⁻¹. Also, in the series with glucosamine-6-phosphate [2], the “self-cleavage kobs at 160 uM GlcN6P” value was less than 1e-05 s⁻¹. In the series with glucosamine-6-phosphate [3], the “self-cleavage kobs at 2500 uM GlcN6P” value is less than 1e-05 s⁻¹.

Take AUAAAAGCGCCCGAACUACAGAAAUGUAGUUGACGAGGAGGAGGUAUAUCGAAUUUUCGGCCGAUGCCUCCAAA [A12C U46A G62C]: the “self-cleavage kobs at 640 uM GlcN6P” value with glucosamine-6-phosphate [1] was less than 1e-05 s⁻¹.

In the case of AUAAAAGCGCCCGAACUACAGAAAUGUAGUUGACGAGGGGGAGUUUUAUCGACUUUUCGGCGCAUGCCUCCAAA [A12C A39G G44U A53C G63C], the “self-cleavage kobs at 640 uM GlcN6P” value in the series with glucosamine-6-phosphate [1] is less than 1e-05 s⁻¹.

For AUAAAAGCGCGAGAAAUACAGAAAUGUAGUUGACGAGGAGGAGGUUUAUGGAAUUUUCGGCGGAGGCCUCCAAA [C11G C16A C50G U65G], the “self-cleavage kobs at 640 uM GlcN6P” value with glucosamine-6-phosphate [1] was 0.000148 ± 5.2e-05 s⁻¹.

Turning to AUAAAAGCGCCCGAACUACAGAAAUGUAGUUGACGAGGAGGAGGUUUAUCGAAGUUUCGGCGGAUGCGUCCAAA [A12C U54G C68G], the “self-cleavage kobs at 640 uM GlcN6P” value with glucosamine-6-phosphate [1] stood at 4.37e-05 ± 1.2e-05 s⁻¹. In addition, in the series with glucosamine-6-phosphate [3], the “self-cleavage kobs at 2500 uM GlcN6P” value stood at 5.51e-05 ± 1.5e-05 s⁻¹.

Turning to AUAAAAGCGCCGGAACUACAGAAAUGUAGUUGACGAGGAGGAGGUGUACCGAAUUUUCGGCGGAUGCCUCCAAA [A12G U46G U49C], the “self-cleavage kobs at 640 uM GlcN6P” value in the series with glucosamine-6-phosphate [1] is less than 1e-05 s⁻¹. For the same variant, in the series with glucosamine-6-phosphate [2], the “self-cleavage kobs at 160 uM GlcN6P” value was less than 1e-05 s⁻¹.

On to AUAAAAGCGCUAGAACUACAGAAAUGUAGUUGACGAGGAGGAGGUUUAUCGACUUUUCGGCGGAUGCCUCCAAA [C11U A53C], for which the “self-cleavage kobs at 640 uM GlcN6P” value in the series with glucosamine-6-phosphate [1] came to 8.09e-05 ± 1e-05 s⁻¹. Moreover, the “self-cleavage kobs at 160 uM GlcN6P” value with glucosamine-6-phosphate [2] turned out to be 3.37e-05 ± 1.3e-05 s⁻¹. In addition, the “self-cleavage kobs at 2500 uM GlcN6P” value in the series with glucosamine-6-phosphate [3] was found to be 0.000307 ± 4.8e-05 s⁻¹. Further, the “self-cleavage kobs at 10000 uM GlcN6P” value in the series with glucosamine-6-phosphate [4] was determined as 0.000412 ± 6.8e-05 s⁻¹.

Consider AUAAAAGCGCGAGAACUACAGAAAUGUAGUUGACGAGGAGGAGGUUUAUGGUAUUUUCGGCGGAUGCCUCCAAA [C11G C50G A52U], for which, in the series with glucosamine-6-phosphate [1], the “self-cleavage kobs at 640 uM GlcN6P” value was less than 1e-05 s⁻¹. Also, in the series with glucosamine-6-phosphate [3], the “self-cleavage kobs at 2500 uM GlcN6P” value was less than 1e-05 s⁻¹.

Regarding AUAAAAGCGCGAGAAGUACAGAAAUGUAGUUGACGAGGAGAAGGUUUAUCGAAUUUUCGGCGGAUGCCUCCAAA [C11G C16G G41A], in the series with glucosamine-6-phosphate [1], the “self-cleavage kobs at 640 uM GlcN6P” value is less than 1e-05 s⁻¹.

Turning to AUAAAAGCGCUAGAACUACAGAAAUGUAGUUGACGAAGAGGAGGUUUAUCGAAUUUGCGGCGAAUGCCUCCAAA [C11U G37A U57G G63A], the “self-cleavage kobs at 640 uM GlcN6P” value with glucosamine-6-phosphate [1] was less than 1e-05 s⁻¹.

Take AUAAAAGCGCUAGAACUACAGAAAUGUAGUUGAAGAGGAGGAGGUUUAUCGAAUGUUCGGCGGAUGCCUCCAAA [C11U C34A U55G]: the “self-cleavage kobs at 640 uM GlcN6P” value with glucosamine-6-phosphate [1] is less than 1e-05 s⁻¹.

Consider AUAAAAGCGCUAGAACUACAGAAAUGUAGUUGACGAGGAGGAGGUUUAUCUAAGUUUCUGCGGAUGCCUUCAAA [C11U G51U U54G G59U C70U], for which the “self-cleavage kobs at 640 uM GlcN6P” value with glucosamine-6-phosphate [1] is less than 1e-05 s⁻¹.

For the variant AUAAAAGCGCCUGAACUACAGAAAUGUAGUUCACGAGGAGGAGGUUUAUUGAAUUUUCGGCGGAUGCCUCCAAA [A12U G32C C50U], the “self-cleavage kobs at 640 uM GlcN6P” value in the series with glucosamine-6-phosphate [1] was less than 1e-05 s⁻¹. The “self-cleavage kobs at 2500 uM GlcN6P” value with glucosamine-6-phosphate [3] is less than 1e-05 s⁻¹.
